# In the supplement of paper PMC12217912:
# The list shows a part of the results. Sequences were assembled here from the parent chain. Inactive controls read about 0.05.
# B1: TEV protease; numbered along this chain (parent)
# chain: MGESLFKGPRDYNPISSSICHLTNESDGHTTSLYGIGFGPFIITNKHLFRRNNGTLVVQSLHGVFKVKDTTTLQQHLVDGRDMIIIRMPKDFPPFPQKLKFREPQREERICLVTTNFQTKSMSSMVSDTSCTFPSGDGIFWKHWIQTKDGQCGSPLVSTRDGFIVGIHSASNFTNTNNYFTSVPKNFMELLTNQEAQQWVSGWRLNADSVLWGGHKVFMVKPEEPFQPVKEATQL
# Variants of: B1
# Assay: raw area under fraction-flipped curve 0-4 h after induction (AUC4h, not background-subtracted), DNA-recorder readout of cleavage of the substrate (dimensionless); higher = more cleavage of the substrate by the protease variant
# Details: temperature: 34 °C; time window: 0-4 h after rhamnose induction
# 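Note: Bxb1 expression induced with 0.2% (w/v) L-rhamnose at OD600 near 0.5, cultures sampled hourly, flipped fraction per protease–substrate barcode pair counted by paired-end Illumina sequencing.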
Variant,area with substrate EDLYFQS,area with substrate EELYFQS,area with substrate ELLYFQS,area with substrate EMLYFQS,area with substrate EPLYFQS,area with substrate ERLYFQS,area with substrate EYLYFQS,area with substrate EILYFQS,area with substrate EKLYFQS,area with substrate EQLYFQS
R87D,0.0859,0.0821,0.071,0.096,0.072,0.0756,0.0881,,,
D91E,0.126,,,,,,,,,
F95N,0.102,,0.0928,,,0.0881,,0.0801,0.0974,0.0944
F101H,0.0275,,,,,0.0443,,0.0321,,
E103I,0.0887,,,,0.132,,,0.121,0.0912,0.107
E103S,0.113,,0.0782,0.152,,,,0.133,,
E108G,0.0841,,0.0585,,,0.084,,0.0726,0.0753,0.0727
C111A,0.0944,,,,0.117,,,0.0672,,
Q118L,0.138,,0.101,0.113,,0.129,,,,
T119A,0.132,,0.0855,0.122,,0.112,0.0831,0.0958,,0.0814
T119G,0.129,,,,,,0.094,,,
S121F,0.123,0.122,,0.122,,0.0682,,0.0873,0.118,0.104
S135L,0.0678,,,,0.0752,,,0.0553,0.0475,
G138W,0.0842,,,0.0767,,0.0994,,0.0844,0.0872,
W141F,0.106,0.0922,0.0949,0.077,0.103,0.0062,,0.0771,,
I145G,0.111,0.138,,,,0.0859,0.0926,0.0836,,0.121
D149P,0.145,0.0977,,0.0952,,,,,0.0941,0.09
G150A,0.0537,,,,0.0699,,,,,0.0789
G153I,0.0458,0.037,,,0.0526,,,,0.0544,0.0378
G153S,0.0616,,,,,,,,,
F163A,0.103,,0.105,,,,,,,0.119
F163P,0.0665,0.0581,,0.0559,,,,0.0463,,
S169Y,0.057,,,,0.0538,0.0512,,,0.038,
A170W,0.0568,0.0634,,0.0566,0.0588,,0.0573,0.0591,,

Variant,area with substrate EDLYFQS,area with substrate EELYFQS,area with substrate ELLYFQS,area with substrate EMLYFQS,area with substrate EPLYFQS,area with substrate ERLYFQS,area with substrate EYLYFQS,area with substrate EILYFQS,area with substrate EKLYFQS,area with substrate EQLYFQS
N172Q,0.0604,,0.0682,0.0439,,,,,,
N178C,0.125,,,,,,,,,
N178R,0.13,0.12,,,,0.107,,0.0702,0.137,
K185V,0.12,,,0.0978,0.103,,,0.128,,
W203D,0.0692,,,0.0583,0.0616,,,,,
L205Y,0.106,0.125,0.0641,0.0929,0.0826,0.0683,,0.0696,,
S209K,0.112,,0.0843,0.11,,,,0.0766,,0.0931
S209R,0.116,0.11,0.0795,,,0.0685,0.0644,0.0868,0.0568,
W212N,0.0961,,,0.0742,,,,,,
W212S,0.0756,,,0.0725,,,,,0.057,0.0924
H215I,0.114,,,,,,,0.0808,,
F226V,0.141,,,,,,,0.113,,0.12
E3D,,0.13,0.112,0.15,0.165,0.0996,,0.131,0.128,0.128
K7Y,,0.0656,,,,,,,0.113,
G35S,,0.0847,,,,,,,0.0808,0.0936
N53L,,0.178,0.102,0.0849,,,,0.099,0.0841,
V57I,,0.141,,,,,,0.113,0.096,0.111
F65V,,0.105,0.0859,,,,,0.0882,0.121,
K66H,,0.12,,,,,,,0.123,0.125
Q74I,,0.0976,,,0.0927,0.0915,0.0777,,,0.0751
R81P,,0.0883,,,,,,,,0.091
I84H,,0.0709,0.046,0.0524,0.0357,,,0.0589,0.0265,
R87T,,0.0778,,,0.0934,0.101,,0.0637,0.0596,
D91M,,0.112,,0.0906,,,,,0.0834,

# Same assay, conditions: temperature: 34 °C; time window: 0-4 h after rhamnose induction
Variant,area with substrate EVLYFQS,area with substrate EGLYFQS,area with substrate ESLYFQS,area with substrate ETLYFQS,area with substrate EHLYFQS,area with substrate EWLYFQS,area with substrate EFLYFQS
F95N,0.0708,,,,,,
F101H,0.0428,0.0435,0.0549,0.0513,,,
E103I,0.11,0.0839,0.1,,0.0091,,
E103S,,,0.13,0.104,0.128,,
E108G,,,0.0568,,0.0759,,
C111A,,,0.104,,0.0943,,
Q118L,,0.108,,,0.137,,
T119A,,0.102,0.116,,,,
T119G,,,,0.0927,,,
S121F,0.0771,,,0.123,0.104,0.105,
S135L,,0.0591,,,,,
G138W,,,0.105,,,0.0815,
W141F,,0.0758,,,,0.108,0.106
I145G,,0.0766,,,0.0955,,
D149P,0.0627,0.0577,0.103,,0.0922,,
G150A,0.0794,,0.0572,,,,0.0556
G153I,0.0419,0.0477,0.0591,,0.0575,0.042,
F163P,0.0488,,,0.0365,0.0546,0.0662,
A170W,0.0732,,0.0455,,,0.0631,
N172Q,0.0834,,,0.0724,,0.0541,
N178C,,0.0724,,,,,

Variant,area with substrate EVLYFQS,area with substrate EGLYFQS,area with substrate ESLYFQS,area with substrate ETLYFQS,area with substrate EHLYFQS,area with substrate EWLYFQS,area with substrate EFLYFQS
N178R,,0.0821,0.115,0.109,,,0.104
K185V,,,0.053,,0.0911,,
W203D,0.0535,,0.0673,,,0.0755,
L205Y,0.0845,0.0718,0.0785,,0.113,0.0961,
S209K,0.0582,0.0668,0.0743,,0.0917,0.0706,
S209R,0.0746,,0.0595,,,0.109,
W212N,,,0.0796,,,,
W212S,,,0.092,,0.0815,0.0753,
F226V,0.12,,0.103,,,,
E3D,,0.103,,,,0.129,
K7Y,0.0964,,0.112,,,,
G35S,,0.104,,,,,
N53L,,0.083,0.101,,,0.0766,0.0937
V57I,,,0.0895,,,,
F65V,,,0.0898,,,,
K66H,,,0.097,,,0.0883,
Q74I,,,,,,0.0902,
R81P,,,,,0.0897,,
I84H,,0.0606,0.0613,,,,0.0436
R87T,0.0916,0.0937,0.0847,,,,
